# “And” between values parts separate entries of the source, which are not always exact repeats. Equal values may be shown once. About 5,800 (2.1%) of roughly 270,000 compounds were called active. The inconclusive results got no clear call from the source; some entries with a clear call stand among them for comparison. The call rests on the fitted dose curve; in most records, active means well fitted inhibition curve with a large enough effect; inconclusive means small, poorly fitted or top-dose-only effect; inactive means flat fitted curve, though single readings scatter. Where the call is inconclusive, the potency comes from a doubtful curve fit. Peptide text beside a SMILES is read from it. * marks the point of attachment. Cbz = O=C(OCc1ccccc1)*
# Target: Microtubule-associated protein tau (Homo sapiens) (UniProt P10636)
# Experiment: qHTS for Inhibitors of Tau Fibril Formation, Thioflavin T Binding; further: nearly all actives have a fitted effect of over 55% in size
# Settings: recombinant tau K18 P301L (four-repeat tau fragment), heparin-induced fibrillization, ThT fluorescence; series mostly up to 57.4 µM; activity, negative = inhibition: at the top concentration
# Outline: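 In this qHTS, human K18 P301L tau is incubated with compound and heparin for 6 hr at 37 C, and Thioflavin T fluorescence then reports fibril load.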
# On the % scale 0 is the no-effect control and ±100 the full control effect; potency means the concentration at half of the fitted maximal effect; tags describe the fitted curve by direction and shape.
# Sequence of UniProt P10636 (P10636 whole entry, looked up): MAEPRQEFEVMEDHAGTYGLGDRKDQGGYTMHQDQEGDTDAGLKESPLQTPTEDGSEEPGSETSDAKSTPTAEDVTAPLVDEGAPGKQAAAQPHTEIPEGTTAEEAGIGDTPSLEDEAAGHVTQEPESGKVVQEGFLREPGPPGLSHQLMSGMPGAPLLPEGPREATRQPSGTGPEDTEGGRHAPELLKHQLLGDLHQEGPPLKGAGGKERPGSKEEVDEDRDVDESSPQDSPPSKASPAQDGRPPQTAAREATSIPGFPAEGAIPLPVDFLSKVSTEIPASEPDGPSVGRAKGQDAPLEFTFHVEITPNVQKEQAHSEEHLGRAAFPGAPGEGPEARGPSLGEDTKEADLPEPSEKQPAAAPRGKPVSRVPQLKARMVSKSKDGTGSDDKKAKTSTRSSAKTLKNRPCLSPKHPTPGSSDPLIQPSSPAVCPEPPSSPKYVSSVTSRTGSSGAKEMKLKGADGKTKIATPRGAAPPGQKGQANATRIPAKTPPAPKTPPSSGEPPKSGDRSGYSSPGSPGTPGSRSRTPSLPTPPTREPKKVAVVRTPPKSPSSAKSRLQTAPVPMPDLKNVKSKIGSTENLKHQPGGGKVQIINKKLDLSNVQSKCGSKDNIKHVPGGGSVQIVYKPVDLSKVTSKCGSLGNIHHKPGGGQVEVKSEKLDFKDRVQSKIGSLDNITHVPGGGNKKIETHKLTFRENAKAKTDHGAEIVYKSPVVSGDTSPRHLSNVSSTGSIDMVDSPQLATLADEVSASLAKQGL
Structure (SMILES),Potency,"activity, negative = inhibition"
COc1ccc(N2CCN(C(=O)c3ccc(C)c(NC(=O)c4nsc5ccccc45)c3)CC2)cc1,"inconclusive: 10 µM [inhibitor, partial curve]",
COc1ccc(OC)c(S(=O)(=O)NCCc2sc(-c3ccc(C)cc3)nc2C)c1,"inconclusive: 11.2 µM [inhibitor, partial curve]",
O=C(N/N=C/c1ccc(Cl)cc1)c1cc(-c2cccnc2)nc2ccccc12,,inactive: 4.88%
Cc1ccc2c(=O)c(C(=O)c3ccc(F)cc3)cn(CC(=O)NCc3ccccc3)c2n1,,inactive: 5.07%
COc1cccc(Cn2c(CNC(=O)C(C)C)nc3cccnc32)c1,,inactive: -7.23%
O=C(Nc1cnccn1)c1csc2ccccc12,,inactive: -2.41%
COc1ccccc1/C=C/C=N/n1c(-c2ccccn2)n[nH]c1=S,"inconclusive: 15.8 µM [inhibitor, single point]",
Cc1ccc(NC(=O)CSc2ncn[nH]2)cc1S(=O)(=O)N1CCOCC1,"inconclusive: 0.199 µM [activator, full curve, poor fit]",
O=C[C@@H]1CCCN1C(=O)[C@@H]1CCCN1C(=O)OCc1ccccc1 (Cbz-Pro-Pro-aldehyde),active: 17.8 µM,
CCOC(=S)SCC(=O)Nc1nc(C)c(C)s1,"inconclusive: 14.1 µM [inhibitor, partial curve]",
CCOC(=O)c1cc2c(N)c(C(=O)c3ccc(Br)cc3)sc2[nH]c1=O,"inconclusive: 4.47 µM [inhibitor, full curve]",
O=C1CN(C(=O)c2cccc(Br)c2)C(c2ccccc2)c2cc(Cl)ccc2N1 (centres undefined),"inconclusive: 20 µM [inhibitor, single point]",
N#Cc1c(-n2ncnc2-c2cccc(Cl)c2)sc2c1CCCCC2,"inconclusive: 3.98 µM [inhibitor, full curve]",
COc1ccccc1NC(=O)C(=O)c1cc(C)n(-c2cc(C)cc(C)c2)c1C,,inactive: 0.658%
CCCCCCCC1=CC2=CC(=O)C(C)(OC(C)=O)C(=O)C2=CN1CCc1ccccc1 (centres undefined),"inconclusive: 28.2 µM [inhibitor, partial curve] and inconclusive: 3.98 µM [inhibitor, single point]",
Cc1cc(-c2n[nH]c(=S)n2/N=C/c2ccc(Cl)c([N+](=O)[O-])c2)n[nH]1,"inconclusive: 3.55 µM [inhibitor, partial curve, poor fit]",
CC(=O)Oc1cccc(/C=C2\Sc3ccccc3C2=O)c1,active: 10 µM,
CC(=O)c1sc(N/N=C2\CC3CCC2(C)C3(C)C)nc1C (centres undefined),,inactive: 11.4%
Cc1ccc(S(=O)(=O)N2CCCCC2C(=O)N2CCN(c3ccccc3F)CC2)cc1 (centres undefined),,inactive: -14.1%
COc1ccc2c(c1)c1c(c(=O)n(-c3ccc(F)c(Cl)c3)c(=O)n1Cc1ccccc1F)n2C,,inactive: 6.32%
CCS(=O)(=O)c1ccc2oc(Nc3cc(C)cc(C)c3)nc2c1,,inactive: -11.2%
Nc1nc2c(ncn2C2OC(COC(=O)c3ccccc3)C(OC(=O)c3ccccc3)C2OC(=O)c2ccccc2)c(=O)[nH]1 (centres undefined),,inactive: 11.2%
Brc1ccc(-c2csc(N/N=C/c3cccnc3)n2)cc1,"inconclusive: 7.08 µM [inhibitor, partial curve]",

Structure (SMILES),Potency,"activity, negative = inhibition"
Cc1cc(C)nc(OC(=O)c2c(Cl)cc(Cl)cc2Cl)n1,,inactive: -3.69%
Nc1cc(N2CCOCC2)c(Cl)cc1[N+](=O)[O-],"inconclusive: 14.1 µM [inhibitor, partial curve]",
COc1ccc(OC)c(NC(=O)C2COc3ccccc3O2)c1 (centres undefined),"inconclusive: 14.1 µM [inhibitor, partial curve]",
Cc1ccc(-c2nc3ccccc3s2)cc1NC(=S)NC(=O)/C=C/c1ccco1,"inconclusive: 31.6 µM [inhibitor, single point]",
Cc1cccn2c(=O)cc(COc3ccc(NC(=O)COc4ccc(F)cc4)cc3)nc12,"inconclusive: 0.708 µM [inhibitor, full curve, poor fit]",
N=C1/C(=C/c2cccn2Cc2ccc(Cl)cc2)C(=O)N=C2SC=CN12,"inconclusive: 3.16 µM [inhibitor, full curve]",
COc1ccc2[nH]c(=O)c(CN(Cc3nnnn3Cc3ccc(F)cc3)CC3CCCO3)cc2c1 (centres undefined),,inactive: -11.2%
O=C(NCc1ccco1)c1ccc(-c2csnn2)cc1,"inconclusive: 22.4 µM [inhibitor, partial curve]",
COCCNC(=O)c1ccc2c3n(nc2c1)-c1ccc(Cl)cc1CO3,"inconclusive: 1.41 µM [inhibitor, full curve]",
CCN(CC)S(=O)(=O)c1cccc(-c2nnc(SCC(=O)c3ccc(Cl)s3)n2C)c1,"inconclusive: 28.2 µM [inhibitor, single point]",
O=C(O)/C=C/C(O)c1ccc(Cl)cc1 (centres undefined),,inactive: -11.5%
COc1ccc(S(=O)(=O)Nc2ccccc2C(=O)NCc2ccco2)cc1,,inactive: -6.33%
Cc1cccc(CCn2c(=O)c3ccccc3n(Cc3ccccc3C)c2=O)c1,,inactive: -12.2%
COc1cccc(-c2nc3c(c(SCC(=O)Nc4cccc(C)c4C)n2)Cc2c(CO)cnc(C)c2O3)c1,,inactive: -2.82%
CCN1/C(=C2\SC(=S)N(Cc3ccccc3)C2=O)Sc2ccccc21,,inactive: -0.986%
COc1cccc(NC(=O)CN2C=NS(=O)(=O)c3ccccc32)c1,,inactive: 9.51%
Cc1ccc(C(=O)c2sc(Nc3ccc(F)cc3)c(C#N)c2N)cc1,"inconclusive: 15.8 µM [inhibitor, partial curve]",
CCC(C)/C(C)=N/Nc1ccc(S(N)(=O)=O)cc1[N+](=O)[O-] (centres undefined),"inconclusive: 11.2 µM [inhibitor, partial curve]",
Cc1ccccc1NC(=S)N/N=C/C(C)c1ccccc1 (centres undefined),"inconclusive: 35.5 µM [inhibitor, single point]",
Cc1sc2ncnc(N/N=C/c3ccc(O)cc3)c2c1C,active: 4.47 µM,
COc1cccc(C(=O)/C=C/Nc2cccc(O)c2)c1,"inconclusive: 4.47 µM [inhibitor, partial curve]",
COc1ccc(C(=O)Nc2sc3c(c2C#N)CCN(C(C)=O)C3)cc1,"inconclusive: 15.8 µM [inhibitor, partial curve]",
Cc1sc2nc(C3CC3)nc(NCCNS(C)(=O)=O)c2c1C,"inconclusive: 25.1 µM [inhibitor, single point]",

Structure (SMILES),Potency,"activity, negative = inhibition"
CCOC(=O)c1ccc(NC(=O)c2nc[nH]c2C(=O)NCc2ccccc2)cc1,"inconclusive: 2.51 µM [activator, partial curve, poor fit]",
Cc1cc2nc(-c3ccc(NC(=O)c4ccc(OCC(C)C)cc4)cc3)oc2cc1C,"inconclusive: 0.631 µM [inhibitor, partial curve]",
CCOc1ccc2nc(N3CCCC(C(=O)NCCc4ccc(OC)cc4OC)C3)sc2c1 (centres undefined),"inconclusive: 11.2 µM [inhibitor, partial curve]",
CN(C)S(=O)(=O)c1ccc(C(=O)OCC(=O)Nc2ccc(OC(F)F)cc2)cc1,"inconclusive: 25.1 µM [activator, single point]",
CCOc1ccc(N2CC(c3nc4ccccc4n3CCOc3ccc(OC)cc3)CC2=O)cc1 (centres undefined),"inconclusive: 7.94 µM [inhibitor, partial curve]",
CC(C)Cc1nn2cc(-c3cccc(Br)c3)nc2s1,,inactive: -15.8%
Nc1cc(N)cc(C(=O)OCC(=O)Nc2cc(S(=O)(=O)N3CCCCC3)ccc2Cl)c1,,inactive: -1.21%
O=C(COc1ccccc1[N+](=O)[O-])N/N=C/c1ccc(O)cc1,"inconclusive: 39.8 µM [inhibitor, single point]",
COc1ccccc1NC(=O)c1ccc(NC(=O)CSc2nncn2C)cc1,"inconclusive: 39.8 µM [inhibitor, single point]",
CCN(CC)S(=O)(=O)c1cccc(NC(=O)Nc2cccc(C(F)(F)F)c2)c1,,inactive: -13.8%
CCOC(=O)C1CCN(c2cc3c(cc2NC(=O)c2ccccc2Cl)n(C)c(=O)n3C)CC1,"inconclusive: 1.12 µM [inhibitor, partial curve]",
COc1ccc2c(CC(=O)OCC(=O)Nc3sc4c(c3C#N)CCC(C)C4)coc2c1 (centres undefined),,inactive: -6.1%
NC(=O)c1cc(N)ccc1N1CCCC1,"inconclusive: 28.2 µM [inhibitor, partial curve]",
CCOc1ccc(-c2nnc(SCC(=O)Nc3ccc4c(c3)c3ccccc3n4CC)n2N)cc1,"inconclusive: 1 µM [inhibitor, full curve]",
COc1ccc(N2COC3c4cccc5cccc(c45)C32)cc1 (centres undefined),"inconclusive: 25.1 µM [inhibitor, single point]",
Cc1ccc2nc(SCc3nc4cc(Cl)ccc4c(=O)[nH]3)[nH]c2c1,"inconclusive: 22.4 µM [inhibitor, single point]",
COc1ccc(-c2nc3sc(CCNC(=O)C(C)(C)C)c(C)n3n2)cc1,"inconclusive: 28.2 µM [inhibitor, single point]",
Cc1ccc(NCC(=O)c2ccccc2)cc1Cl,"inconclusive: 15.8 µM [inhibitor, partial curve]",
CCN(CC)CCCNC1=C(Cl)C(=O)c2ccccc2C1=O,"inconclusive: 17.8 µM [inhibitor, partial curve]",
COC(=O)c1c(C)n(-c2ccc(OC)cc2)c2ccc(O)cc12,"inconclusive: 28.2 µM [inhibitor, partial curve]",
COc1ccc(NC(=O)CCCN2C(=O)/C(=C\c3ccco3)SC2=S)cc1,active: 15.8 µM,
COc1ccc(C(=O)c2c(C(F)(F)F)oc3c2C(=O)c2ccccc2C3=O)cc1,"inconclusive: 7.08 µM [inhibitor, full curve, poor fit]",
CC1=C(C(=O)Nc2ccccc2)C2(CCCCC2)C(C#N)=C(S)N1,"inconclusive: 31.6 µM [inhibitor, partial curve]",

# Source: PubChem BioAssay AID1460 (National Center for Advancing Translational Sciences (NCATS), 2008)
